About 5,700 (2.6%) of roughly 220,000 compounds were called active. Inconclusive means that the source gave no clear call. Such entries were picked first, then a sample of the others. The call rests on the fitted dose curve; in most records, active means well fitted inhibition curve with a large enough effect; inconclusive means small, poorly fitted or top-dose-only effect; inactive means no such curve, though single readings can be large or run the other way. Potencies of inconclusive entries are doubtful fits and often do not repeat.
molecular target: Lysine-specific demethylase 5B (Homo sapiens) (UniProt Q9UGL1); test: Primary screen for KDM5B Histone Demethylases FDH-coupled qHTS; conditions: FDH-coupled NADH fluorescence (FDH is formaldehyde dehydrogenase); activity change, negative = inhibition: at 57.7 µM (top of the series) unless noted; further: nearly all actives have a fitted effect of over 70% in size; on activity change, negative = inhibition: 0% is about no effect
UniProt Q9UGL1, sequence (Q9UGL1 whole entry, looked up): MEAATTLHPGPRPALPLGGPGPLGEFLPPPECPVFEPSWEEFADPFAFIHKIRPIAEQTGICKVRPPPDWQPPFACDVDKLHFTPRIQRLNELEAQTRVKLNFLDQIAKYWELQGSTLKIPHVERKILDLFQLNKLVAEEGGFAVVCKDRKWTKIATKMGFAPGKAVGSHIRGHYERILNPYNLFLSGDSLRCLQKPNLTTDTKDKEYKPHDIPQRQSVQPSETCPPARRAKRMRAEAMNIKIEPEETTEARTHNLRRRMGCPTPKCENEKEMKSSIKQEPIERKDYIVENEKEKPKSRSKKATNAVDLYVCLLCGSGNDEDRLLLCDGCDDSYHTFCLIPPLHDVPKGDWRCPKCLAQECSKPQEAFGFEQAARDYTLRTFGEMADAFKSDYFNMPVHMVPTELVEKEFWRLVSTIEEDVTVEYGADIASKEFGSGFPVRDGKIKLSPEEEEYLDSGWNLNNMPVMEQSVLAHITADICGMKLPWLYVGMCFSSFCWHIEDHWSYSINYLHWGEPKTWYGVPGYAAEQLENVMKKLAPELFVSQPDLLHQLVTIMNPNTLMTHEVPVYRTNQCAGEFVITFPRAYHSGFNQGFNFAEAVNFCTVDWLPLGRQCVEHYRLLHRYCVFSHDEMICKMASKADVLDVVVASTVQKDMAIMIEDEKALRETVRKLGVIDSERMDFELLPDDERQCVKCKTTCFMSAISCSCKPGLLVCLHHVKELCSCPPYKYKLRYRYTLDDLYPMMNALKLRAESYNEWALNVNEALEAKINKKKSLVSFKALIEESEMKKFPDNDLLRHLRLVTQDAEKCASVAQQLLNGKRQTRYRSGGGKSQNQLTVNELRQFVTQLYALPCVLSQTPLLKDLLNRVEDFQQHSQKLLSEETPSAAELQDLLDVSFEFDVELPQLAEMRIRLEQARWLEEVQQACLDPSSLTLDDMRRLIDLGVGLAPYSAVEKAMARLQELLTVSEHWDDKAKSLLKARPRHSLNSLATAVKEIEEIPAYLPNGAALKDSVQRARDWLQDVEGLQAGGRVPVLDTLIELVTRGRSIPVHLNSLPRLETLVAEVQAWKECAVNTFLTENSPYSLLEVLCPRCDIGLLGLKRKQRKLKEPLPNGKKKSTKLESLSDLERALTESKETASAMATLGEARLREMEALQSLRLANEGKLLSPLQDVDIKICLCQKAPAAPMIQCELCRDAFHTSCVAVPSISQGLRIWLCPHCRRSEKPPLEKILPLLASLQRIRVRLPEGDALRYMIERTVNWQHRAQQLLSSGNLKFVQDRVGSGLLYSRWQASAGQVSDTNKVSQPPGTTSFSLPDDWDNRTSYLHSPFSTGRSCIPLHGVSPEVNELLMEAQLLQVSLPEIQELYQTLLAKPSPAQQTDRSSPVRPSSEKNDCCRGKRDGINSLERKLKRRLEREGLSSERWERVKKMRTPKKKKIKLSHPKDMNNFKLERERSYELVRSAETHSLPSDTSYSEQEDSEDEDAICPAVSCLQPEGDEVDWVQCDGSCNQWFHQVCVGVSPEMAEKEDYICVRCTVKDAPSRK
Method in brief: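 qHTS format, multiple compound concentrations. Buffer 50 mM HEPES pH 7.5/0.01% Tween-20; 200 nM KDM5BΔAP final; 10 min compound preincubation; substrate-mix levels 12.5 µM peptide, 25 µM α-KG, 0.25 mM NAD⁺; 30 min RT; ΔRFU.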
Potency means the concentration at half of the fitted maximal effect; tags describe the fitted curve by direction and shape.

Row | SMILES | Potency | activity change, negative = inhibition
1 | Cn1ccc2cc(S(=O)(=O)N3CCCN(C(=O)Nc4ccccc4Br)CC3)ccc21 | inconclusive: 7.94 µM [inhibitor, partial curve, poor fit] | 
2 | Cc1ccccc1CNC(=O)c1ccc2c(c1)N(C)C1CCCCN1C2=O (stereo unspecified) | inconclusive: 20 µM [inhibitor, partial curve, poor fit] | 
3 | CCn1c2ccccc2c2nnc(SCCN3CCCCC3)nc21 |  | inconclusive: -30.2% [inhibitor]
4 | N#C/C(=C/c1cn(Cc2ccc(F)cc2)c2ccccc12)C(=O)Nc1cccc(Cl)c1 |  | inconclusive: -30.4% [inhibitor]
5 | CCC(C)C(NC(=O)c1ccc(C(C)C)cc1)C(=O)O (stereo unspecified) | inactive | 
6 | CC(C)CNC(=O)c1cc(-c2cccs2)nc2ccccc12 | inconclusive: 14.1 µM [inhibitor, partial curve, poor fit] | 
7 | CCOc1ccc(-c2cc(C(=O)NC(C)CC)c3ccccc3n2)cc1 (stereo unspecified) | inconclusive: 8.91 µM [inhibitor, partial curve, poor fit] | 
8 | COc1ccc(OC)c(CNC(=O)CCCn2ccc3cc(S(=O)(=O)N4CCCC4)ccc32)c1 | inconclusive: 25.1 µM [inhibitor, single point] | 
9 | CCCC(=O)NCC1CC2c3ccccc3C1c1ccccc12 (stereo unspecified) | inactive | 
10 | COCCCNC(=O)COc1cc2c(c3oc(=O)c(C)c(C)c13)CCC(C)(C)O2 | inconclusive: 25.1 µM [inhibitor, partial curve, poor fit] | 
11 | Cc1ccc(CN(C(=O)COc2cccc([N+](=O)[O-])c2)c2ccccn2)o1 | inconclusive: 17.8 µM [inhibitor, partial curve, poor fit] | 
12 | CCC12CN(CC#N)CC(C)(CN(CC#N)C1)C2=O | inactive | 
13 | CN1Cc2cccn2CC1CNC(=O)c1ccsc1 (stereo unspecified) | active: 20 µM | 
14 | O=[N+]([O-])c1cc(S(=O)(=O)Nc2ccccc2)ccc1N/N=C/c1cn(-c2ccccc2)nc1-c1cccs1 | inactive | 
15 | CCN(CC)Cc1cnc2c(C(=O)N3CCC(N4CCCC4)CC3)cnn2c1 | inconclusive: 20 µM [inhibitor, single point] | 
16 | CC(=O)NCC(=O)N1Cc2ccccc2CC2(CCCCN2CC2CCNCC2)C1 (stereo unspecified) | inactive | 
17 | c1cn(-c2ccc(OCC3CCCO3)cc2)c(-c2cc3n(n2)CCNC3)n1 (stereo unspecified) | inconclusive: 1.26 µM [inhibitor, full curve, poor fit] | 
18 | CSCC[C@@H]1NC(=O)c2cc(NC(=O)c3cc(-c4cccnc4)n[nH]3)ccc2NC1=O | inconclusive: 15.8 µM [inhibitor, partial curve] | 
19 | O=C(Nc1cccc(Cl)c1Cl)c1ccc2c(c1)N(Cc1cccc(Cl)c1)C(=O)c1ccccc1S2(=O)=O | inconclusive: 25.1 µM [inhibitor, partial curve, poor fit] | 
20 | COc1ccc(C2CC(=O)Nc3c2ncn3-c2cccc(C(F)(F)F)c2)cc1OC (stereo unspecified) | inconclusive: 25.1 µM [inhibitor, partial curve, poor fit] | 
21 | Cc1nc2nc(NCc3cccc(Br)c3)[nH]n2c(=O)c1Cc1ccccc1 | inconclusive: 12.6 µM [inhibitor, partial curve, poor fit] | 

Row | SMILES | Potency | activity change, negative = inhibition
22 | CC1(C(=O)Nc2cccc3ccccc23)CC1(Br)Br (stereo unspecified) | inconclusive: 39.8 µM [inhibitor, partial curve, poor fit] | 
23 | CC1N=C2c3ccccc3N=C(SCC(=O)NCCc3ccccc3)N2C1=O (stereo unspecified) | inconclusive: 31.6 µM [inhibitor, partial curve, poor fit] | 
24 | CC(=O)Nc1ccc(NC(=O)c2ccc3c(c2)N(Cc2cccc(Cl)c2)C(=O)c2ccccc2S3(=O)=O)cc1 | inconclusive: 28.2 µM [inhibitor, partial curve, poor fit] | 
25 | CCOC(=O)C(C)Sc1ccc2nnc(CCNS(=O)(=O)c3ccccc3)n2n1 (stereo unspecified) | inconclusive: 25.1 µM [inhibitor, partial curve, poor fit] | 
26 | COc1cc2c(cc1OC)C(CNC(=O)c1cccs1)N(C(=O)Nc1ccccc1)CC2 (stereo unspecified) | inactive | 
27 | CCCCOc1cccc(C(=O)N(Cc2ccc(C)o2)c2ccccn2)c1 | inconclusive: 15.8 µM [inhibitor, partial curve, poor fit] | 
28 | CCOc1ccc(CCNC(=O)c2cnc3sc(N4CCCC4)nn3c2=O)cc1 | inconclusive: 22.4 µM [inhibitor, partial curve, poor fit] | 
29 | CCc1cc(=O)oc2c(C)c(OC(C)C(=O)NCc3ccncc3)ccc12 (stereo unspecified) | inconclusive: 39.8 µM [inhibitor, single point] | 
30 | COCCNC(=O)C(=O)N1CCN(c2nc(C(C)C)c3c(c2C#N)CCCC3)CC1 | inconclusive: 25.1 µM [inhibitor, partial curve, poor fit] | 
31 | COc1ccccc1-c1[nH]nc2ncc(-c3cccnc3OC)nc12 | inactive | 
32 | COCCN[C@@H]1C[C@@H]2c3[nH]c4ccccc4c3C[C@@H](C(=O)OC)N2[C@H](c2cccc(OC)c2)C1 | active: 5.62 µM | 
33 | CCOCCCNC(=O)c1c(C)noc1-c1ccc(OC(F)(F)F)cc1 | inactive | 
34 | COC(=O)CC1Oc2ccc(Cl)cc2-n2cc(-c3ccccc3)nc21 (stereo unspecified) | inconclusive: 28.2 µM [inhibitor, partial curve, poor fit] | 
35 | CCN(CC)Cc1cnc2c(C(=O)NCCc3cccs3)cnn2c1 | inactive | 
36 | CC(C(=O)Nc1cc(Cl)cc(Cl)c1)N1CCN(c2ccc(O)cc2)CC1 (stereo unspecified) | inconclusive: 15.8 µM [inhibitor, partial curve, poor fit] | 
37 | O=C(CS(=O)(=O)Cc1coc(-c2ccccc2)n1)N1CCCC1 | inactive | 
38 | O=C(NC1(C(F)(F)F)NC(=O)N(CCc2ccccc2)C1=O)c1ccc(Cl)cc1 (stereo unspecified) |  | inconclusive: -31.6% [inhibitor]
39 | CCn1ccc2c(OCC(=O)Nc3ccccc3C(F)(F)F)cccc2c1=O | inconclusive: 25.1 µM [inhibitor, single point] | 
40 | Clc1ccccc1C1(c2ccnc(NCc3ccccc3)n2)CCNCC1 | inconclusive: 20 µM [inhibitor, single point] | 
41 | CN(C)C(=O)NC1CCN(c2nc3ncccc3o2)CC1 | active: 31.6 µM | 

Source: PubChem BioAssay AID1347165 (National Center for Advancing Translational Sciences (NCATS), 2019)
